Experimental data: publication PMC6650552
No constants are given. Whether binding was seen depends on the method and setting. Some results given as binding are weak or reduced against the parent protein; the word gives no strength. For some assays here: Tags and fused reporters may be left off the sequences shown.

Amino acid sequences for entries named in this document (tags omitted).
UniProt P23926: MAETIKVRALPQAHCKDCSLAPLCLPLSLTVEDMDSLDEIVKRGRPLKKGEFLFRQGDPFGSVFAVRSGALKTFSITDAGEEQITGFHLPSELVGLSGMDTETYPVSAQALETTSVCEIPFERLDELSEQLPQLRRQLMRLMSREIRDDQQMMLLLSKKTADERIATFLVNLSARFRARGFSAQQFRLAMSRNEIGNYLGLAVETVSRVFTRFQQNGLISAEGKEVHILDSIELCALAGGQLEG
UniProt Q9QUN7: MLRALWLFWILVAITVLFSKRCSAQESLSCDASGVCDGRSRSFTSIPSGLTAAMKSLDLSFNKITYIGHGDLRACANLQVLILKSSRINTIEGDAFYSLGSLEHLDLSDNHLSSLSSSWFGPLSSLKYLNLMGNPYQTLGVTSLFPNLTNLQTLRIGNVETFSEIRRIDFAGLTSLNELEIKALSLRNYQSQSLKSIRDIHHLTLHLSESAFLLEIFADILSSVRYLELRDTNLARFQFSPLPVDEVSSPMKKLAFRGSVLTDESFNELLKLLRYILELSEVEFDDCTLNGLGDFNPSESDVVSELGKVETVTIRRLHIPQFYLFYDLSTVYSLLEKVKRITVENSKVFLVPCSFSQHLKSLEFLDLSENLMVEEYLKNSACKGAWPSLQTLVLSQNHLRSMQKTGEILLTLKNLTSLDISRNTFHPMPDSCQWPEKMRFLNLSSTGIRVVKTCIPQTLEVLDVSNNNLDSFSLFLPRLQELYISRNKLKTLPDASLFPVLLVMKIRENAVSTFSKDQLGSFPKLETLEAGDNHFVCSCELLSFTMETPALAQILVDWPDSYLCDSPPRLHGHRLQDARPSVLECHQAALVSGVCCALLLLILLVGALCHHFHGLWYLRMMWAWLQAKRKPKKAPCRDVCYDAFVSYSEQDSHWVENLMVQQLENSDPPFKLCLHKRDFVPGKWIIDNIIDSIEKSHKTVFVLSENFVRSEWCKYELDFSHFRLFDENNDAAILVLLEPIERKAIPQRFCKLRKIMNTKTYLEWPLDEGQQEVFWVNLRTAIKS
UniProt Q9JLF7: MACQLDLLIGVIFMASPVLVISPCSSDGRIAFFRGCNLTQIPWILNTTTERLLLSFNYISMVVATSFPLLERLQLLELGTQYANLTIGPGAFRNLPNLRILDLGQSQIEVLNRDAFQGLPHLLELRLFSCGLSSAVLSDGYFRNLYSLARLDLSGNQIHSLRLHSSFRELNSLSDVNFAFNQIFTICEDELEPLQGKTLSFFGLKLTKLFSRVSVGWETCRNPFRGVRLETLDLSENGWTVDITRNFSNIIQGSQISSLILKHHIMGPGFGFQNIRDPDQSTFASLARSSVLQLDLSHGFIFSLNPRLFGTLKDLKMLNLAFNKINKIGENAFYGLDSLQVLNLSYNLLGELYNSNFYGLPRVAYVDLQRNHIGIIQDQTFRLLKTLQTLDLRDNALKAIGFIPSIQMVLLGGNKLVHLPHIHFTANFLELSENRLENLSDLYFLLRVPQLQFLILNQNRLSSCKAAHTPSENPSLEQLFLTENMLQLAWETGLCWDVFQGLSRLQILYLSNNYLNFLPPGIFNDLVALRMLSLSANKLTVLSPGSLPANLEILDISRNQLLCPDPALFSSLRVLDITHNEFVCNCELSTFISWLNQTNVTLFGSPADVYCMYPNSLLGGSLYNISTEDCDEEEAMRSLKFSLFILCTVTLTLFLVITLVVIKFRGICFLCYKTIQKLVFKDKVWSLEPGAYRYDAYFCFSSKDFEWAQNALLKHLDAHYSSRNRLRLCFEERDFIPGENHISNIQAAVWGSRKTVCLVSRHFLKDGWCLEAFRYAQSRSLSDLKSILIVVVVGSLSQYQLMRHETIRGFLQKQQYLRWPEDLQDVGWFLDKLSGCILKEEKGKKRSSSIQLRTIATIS
UniProt Q9HXD2: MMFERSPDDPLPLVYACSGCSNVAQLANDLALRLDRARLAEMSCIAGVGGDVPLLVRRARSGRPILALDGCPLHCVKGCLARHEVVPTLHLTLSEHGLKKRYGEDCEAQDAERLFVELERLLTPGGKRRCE

Experiments:
Experiment in all cases: two-hybrid; BacterioMatch II bacterial two-hybrid: pBT bait (λcI fusion) and pTRG-AnvM (RNA polymerase alpha-subunit fusion) cotransformed into the validation reporter strain; growth on nonselective and dually selective media (3-amino-1,2,4-triazole plus streptomycin), 30°C, 2 to 4 days
[1] = target: Anr fused to lambda repressor protein (pBT-Anr) (P. aeruginosa) (UniProt P23926)
[2] = target: T1, MvfR fused to lambda repressor protein (pBT-MvfR) (P. aeruginosa) (UniProt Q9I4X0)
T1 sequence: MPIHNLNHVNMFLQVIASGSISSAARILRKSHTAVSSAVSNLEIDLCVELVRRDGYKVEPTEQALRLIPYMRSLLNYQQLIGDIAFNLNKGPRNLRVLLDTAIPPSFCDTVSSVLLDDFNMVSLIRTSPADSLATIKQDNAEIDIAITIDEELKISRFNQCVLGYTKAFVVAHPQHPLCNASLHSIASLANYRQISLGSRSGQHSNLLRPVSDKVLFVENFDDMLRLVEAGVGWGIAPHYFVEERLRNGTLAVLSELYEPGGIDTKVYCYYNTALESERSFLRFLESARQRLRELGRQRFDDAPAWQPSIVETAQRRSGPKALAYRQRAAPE

[3] = target: NarL (bacterial two-hybrid construct) (P. aeruginosa) (UniProt Q9HXD3)
[4] = target: Toll-like receptor 2 fused to lambda repressor protein (pBT-TLR2) (UniProt Q9QUN7)
[5] = target: Toll-like receptor 5 fused to lambda repressor protein (pBT-TLR5) (UniProt Q9JLF7)

Question: “AnvM fused to the alpha-subunit of RNA polymerase (pTRG-AnvM) (from UniProt Q9HXD2 1-131)” was tested. Which binding [1] did it give?
Answer: The binding was “binds”.

Question: What about the binding [2] of the same substance?
Answer: Its binding is “binds”.

Question: What about the binding [3] of the same substance?
Answer: Its binding is “no binding”.

Question: And the binding [4]?
Answer: The binding was “binds”.

Question: And the binding [5]?
Answer: Its binding is “binds”.
